# In the supplement of paper PMC8728848:
# The list shows a part of the results.
# B1: Di AAL2 (Agrocybe aegerita) (protein)
# chain: MTSNVITQDLPIPVASRGFADIVGFGLDGVVIGRNAVNLQPFLAVKNFAQNAGGWLTTKHVRLIADTTGTGKGDIVGFGNAGVYVSVNNGKNTFADPPKMVIANFGYDAGGWRVEKHLRYLADIRKIGRADIIGFGEKGVLVSRNNGGLNFGPATLVLKDFGYDAGGWRLDRHLRFLADVTGNGHLDIVGFGDKHVFISRNNGDGTFAPAKSVIDNFCIDAGGWKIGDHPRFVADLTGDGTADIIGCGKAGCWVALNNGGGVFGQVKLVINDFGTDKGWQAAKHPRFIADLTGNGRGDVVGFGNAGVYVALNNGDGTFQSAKLVLKDFGVQQGWTVSKHRRFVVDLTGDGCADIIGFGEKETLVSYNDGKGNFGPVKALTNDFSFSGGKWAPETTVCWMANLDSSRHPAPAPMTSNVITQDLPIPVASRGFADIVGFGLDGVVIGRNAVNLQPFLAVKNFAQNAGGWLTTKHVRLIADTTGTGKGDIVGFGNAGVYVSVNNGKNTFADPPKMVIANFGYDAGGWRVEKHLRYLADIRKIGRADIIGFGEKGVLVSRNNGGLNFGPATLVLKDFGYDAGGWRLDRHLRFLADVTGNGHLDIVGFGDKHVFISRNNGDGTFAPAKSVIDNFCIDAGGWKIGDHPRFVADLTGDGTADIIGCGKAGCWVALNNGGGVFGQVKLVINDFGTDKGWQAAKHPRFIADLTGNGRGDVVGFGNAGVYVALNNGDGTFQSAKLVLKDFGVQQGWTVSKHRRFVVDLTGDGCADIIGFGEKETLVSYNDGKGNFGPVKALTNDFSFSGGKWAPETTVCWMANLDSSRH
# Experiments:
# Experiment in all cases: glycan array binding signal (z-score within array); higher = stronger binding
# Conditions in all cases: glycan notation: IUPAC condensed, linker removed
# [1] = target: Fuc(a1-2)[GalNAc(b1-3)]Gal
# How it was run: (§1)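 The Consortium for Functional Glycomics database supplied 3228 glycan arrays, of which those lacking an available protein sequence were dropped. The binding signal, a within-array Z-score, was averaged across arrays of the same protein sequence and across linkers. Negative scores can be read as non-binding.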
# Fuc(a1-3)GlcNAc = target: Fuc(a1-3)GlcNAc
# How it was run: as §1
# [2] = target: Fuc(a1-3)[Gal(b1-4)]Glc6S
# How it was run: as §1
# [3] = target: Fuc(a1-3)[Gal(b1-4)]GlcNAc
# How it was run: as §1
# [4] = target: Fuc(a1-3)[Gal(b1-4)]GlcNAc(b1-2)Man
# How it was run: as §1
# [5] = target: Fuc(a1-3)[Gal(b1-4)]GlcNAc(b1-2)Man(a1-3)[Fuc(a1-3)[Gal(b1-4)]GlcNAc(b1-2)Man(a1-6)]Man(b1-4)GlcNAc(b1-4)GlcNAc
# How it was run: as §1
# [6] = target: Fuc(a1-3)[Gal(b1-4)]GlcNAc(b1-2)Man(a1-3)[Fuc(a1-3)[Gal(b1-4)]GlcNAc(b1-2)Man(a1-6)]Man(b1-4)GlcNAc(b1-4)[Fuc(a1-6)]GlcNAc
# How it was run: as §1
# [7] = target: Fuc(a1-3)[Gal(b1-4)]GlcNAc(b1-3)Gal(b1-3)[Fuc(a1-4)]GlcNAc
# How it was run: as §1
# [8] = target: Fuc(a1-3)[Gal(b1-4)]GlcNAc(b1-3)Gal(b1-4)[Fuc(a1-3)]GlcNAc
# How it was run: as §1
# [9] = target: Fuc(a1-3)[Gal(b1-4)]GlcNAc(b1-3)Gal(b1-4)[Fuc(a1-3)]GlcNAc(b1-3)Gal(b1-4)[Fuc(a1-3)]GlcNAc
# How it was run: as §1
# [10] = target: Fuc(a1-3)[Gal(b1-4)]GlcNAc(b1-3)GalNAc
# How it was run: as §1
# [11] = target: Fuc(a1-3)[Gal(b1-4)]GlcNAc(b1-6)GalNAc
# How it was run: as §1
# [12] = target: Fuc(a1-3)[Gal(b1-4)]GlcNAc(b1-6)[Gal(b1-3)GlcNAc(b1-3)]Gal(b1-4)Glc
# How it was run: as §1
# [13] = target: Fuc(a1-3)[Gal(b1-4)]GlcNAc6S
# How it was run: as §1
# [14] = target: Fuc(a1-3)[Gal3S(b1-4)]Glc
# How it was run: as §1
# [15] = target: Fuc(a1-3)[Gal3S(b1-4)]GlcNAc
# How it was run: as §1
# [16] = target: Fuc(a1-3)[Gal3S(b1-4)]GlcNAc6S
# How it was run: as §1
# [17] = target: Fuc(a1-3)[GalNAc(b1-4)]GlcNAc
# How it was run: as §1
# [18] = target: Fuc(a1-3)[GalNAc(b1-4)]GlcNAc6S
# How it was run: as §1
# Fuc(a1-4)GlcNAc = target: Fuc(a1-4)GlcNAc
# How it was run: as §1
# Fuc(b1-3)GlcNAc = target: Fuc(b1-3)GlcNAc
# How it was run: as §1
# Gal(a1-2)Gal = target: Gal(a1-2)Gal
# How it was run: as §1
# Gal(a1-3)Gal = target: Gal(a1-3)Gal
# How it was run: as §1
# Gal(a1-3)Gal(b1-3)GlcNAc = target: Gal(a1-3)Gal(b1-3)GlcNAc
# How it was run: as §1
# [19] = target: Gal(a1-3)Gal(b1-3)GlcNAc(b1-2)Man
# How it was run: as §1
# [20] = target: Gal(a1-3)Gal(b1-3)GlcNAc(b1-2)Man(a1-3)[Gal(a1-3)Gal(b1-3)GlcNAc(b1-2)Man(a1-6)]Man(b1-4)GlcNAc(b1-4)GlcNAc
# How it was run: as §1
# [21] = target: Gal(a1-3)Gal(b1-3)GlcNAc(b1-3)GalNAc
# How it was run: as §1
# [22] = target: Gal(a1-3)Gal(b1-3)GlcNAc(b1-6)GalNAc
# How it was run: as §1
# [23] = target: Gal(a1-3)Gal(b1-3)[Fuc(a1-4)]GlcNAc(b1-2)Man(a1-3)[Gal(a1-3)Gal(b1-3)[Fuc(a1-4)]GlcNAc(b1-2)Man(a1-6)]Man(b1-4)GlcNAc(b1-4)GlcNAc
# How it was run: as §1
# Gal(a1-3)Gal(b1-4)Glc = target: Gal(a1-3)Gal(b1-4)Glc
# How it was run: as §1
binder,measurement,setting,value
B1,glycan array binding signal (z-score),[1],-0.337
same,glycan array binding signal (z-score),Fuc(a1-3)GlcNAc,-0.337
same,glycan array binding signal (z-score),[2],-0.322
same,glycan array binding signal (z-score),[3],-0.335
same,glycan array binding signal (z-score),[4],-0.316
same,glycan array binding signal (z-score),[5],-0.33
same,glycan array binding signal (z-score),[6],-0.336
same,glycan array binding signal (z-score),[7],-0.298
same,glycan array binding signal (z-score),[8],-0.275
same,glycan array binding signal (z-score),[9],-0.334
same,glycan array binding signal (z-score),[10],-0.333
same,glycan array binding signal (z-score),[11],-0.319
same,glycan array binding signal (z-score),[12],-0.328
same,glycan array binding signal (z-score),[13],-0.119
same,glycan array binding signal (z-score),[14],-0.336
same,glycan array binding signal (z-score),[15],-0.342
same,glycan array binding signal (z-score),[16],-0.339
same,glycan array binding signal (z-score),[17],-0.332
same,glycan array binding signal (z-score),[18],-0.322
same,glycan array binding signal (z-score),Fuc(a1-4)GlcNAc,-0.305
same,glycan array binding signal (z-score),Fuc(b1-3)GlcNAc,-0.336
same,glycan array binding signal (z-score),Gal(a1-2)Gal,-0.337
same,glycan array binding signal (z-score),Gal(a1-3)Gal,-0.332
same,glycan array binding signal (z-score),Gal(a1-3)Gal(b1-3)GlcNAc,-0.273
same,glycan array binding signal (z-score),[19],-0.328
same,glycan array binding signal (z-score),[20],-0.321
same,glycan array binding signal (z-score),[21],-0.324
same,glycan array binding signal (z-score),[22],-0.323
same,glycan array binding signal (z-score),[23],-0.26
same,glycan array binding signal (z-score),Gal(a1-3)Gal(b1-4)Glc,-0.338
